# The name of at least one read-out is uncertain.
# Test system: CyclinD1 (CCND1)
# Assay: Cyclin D1 (CCND1) percentage degradation in Calu-1 cells (Table 6)
# Type: cell-based
# Details: 16 hours
Structure (SMILES),CyclinD1 Degradation (40 nM),CyclinD1 Degradation (200 nM)
"CNc1ccc(C(=O)Nc2ccc(N(C)C)nn2)c(NC2CN(CCNC(=O)CN3CCN(c4ccc(Nc5ncc6c(C)c(C(C)=O)c(=O)n(C7CCCC7)c6n5)nc4)CC3)C2)n1 [CPD-107, 2-((1-(2-(2-(4-(6-((6-Acetyl-8-cyclopentyl-5-methyl-7-oxo-7,8-dihydropyrido[2,3-d]pyrimidin-2-yl)amino)pyridin-3-yl)piperazin-1-yl)acetamido)ethyl)azetidin-3-yl)amino)-N-(6-(dimethylamino)pyridazin-3-yl)-6-(methylamino)nicotinamide]",D (degradation activity <30%),D (degradation activity <30%)
"CNc1ccc(C(=O)Nc2ccc(OC)nn2)c(NCCCCCNC(=O)CN2CCN(c3ccc(Nc4ncc5c(C)c(C(C)=O)c(=O)n(C6CCCC6)c5n4)nc3)CC2)n1 [CPD-108, 2-((5-(2-(4-(6-((6-Acetyl-8-cyclopentyl-5-methyl-7-oxo-7,8-dihydropyrido[2,3-d]pyrimidin-2-yl)amino)pyridin-3-yl)piperazin-1-yl)acetamido)pentyl)amino)-N-(6-methoxypyridazin-3-yl)-6-(methylamino)nicotinamide]",A (degradation activity >80%),A (degradation activity >80%)
"CNc1ccc(C(=O)Nc2ccc(C)c(C)n2)c(NCCCCCNC(=O)CN2CCN(c3ccc(Nc4ncc5c(C)c(C(C)=O)c(=O)n(C6CCCC6)c5n4)nc3)CC2)n1 [CPD-109, 2-((5-(2-(4-(6-((6-Acetyl-8-cyclopentyl-5-methyl-7-oxo-7,8-dihydropyrido[2,3-d]pyrimidin-2-yl)amino)pyridin-3-yl)piperazin-1-yl)acetamido)pentyl)amino)-N-(5,6-dimethylpyridin-2-yl)-6-(methylamino)nicotinamide]",A (degradation activity >80%),A (degradation activity >80%)
"CNc1ccc(NC(=O)c2ccc(NC)nc2NCCCCCNC(=O)CN2CCN(c3ccc(Nc4ncc5c(C)c(C(C)=O)c(=O)n(C6CCCC6)c5n4)nc3)CC2)nn1 [CPD-110, 2-((5-(2-(4-(6-((6-Acetyl-8-cyclopentyl-5-methyl-7-oxo-7,8-dihydropyrido[2,3-d]pyrimidin-2-yl)amino)pyridin-3-yl)piperazin-1-yl)acetamido)pentyl)amino)-6-(methylamino)-N-(6-(methylamino)pyridazin-3-yl)nicotinamide]",D (degradation activity <30%),A (degradation activity >80%)
"CNc1ccc(C(=O)Nc2ccc(C)c(C(C)C)n2)c(NCCCCCNC(=O)CN2CCN(c3ccc(Nc4ncc5c(C)c(C(C)=O)c(=O)n(C6CCCC6)c5n4)nc3)CC2)n1 [CPD-111, 2-((5-(2-(4-(6-((6-Acetyl-8-cyclopentyl-5-methyl-7-oxo-7,8-dihydropyrido[2,3-d]pyrimidin-2-yl)amino)pyridin-3-yl)piperazin-1-yl)acetamido)pentyl)amino)-N-(6-isopropyl-5-methylpyridin-2-yl)-6-(methylamino)nicotinamide]",D (degradation activity <30%),A (degradation activity >80%)
"CNc1ccc(C(=O)Nc2ccc(Cl)c(C3CC3)n2)c(NCCCCCNC(=O)CN2CCN(c3ccc(Nc4ncc5c(C)c(C(C)=O)c(=O)n(C6CCCC6)c5n4)nc3)CC2)n1 [CPD-112, 2-((5-(2-(4-(6-((6-Acetyl-8-cyclopentyl-5-methyl-7-oxo-7,8-dihydropyrido[2,3-d]pyrimidin-2-yl)amino)pyridin-3-yl)piperazin-1-yl)acetamido)pentyl)amino)-N-(5-chloro-6-cyclopropylpyridin-2-yl)-6-(methylamino)nicotinamide]",D (degradation activity <30%),D (degradation activity <30%)
"CNc1ccc(C(=O)Nc2ccc(F)c(C3CC3)n2)c(NCCCCCNC(=O)CN2CCN(c3ccc(Nc4ncc5c(C)c(C(C)=O)c(=O)n(C6CCCC6)c5n4)nc3)CC2)n1 [CPD-113, 2-((5-(2-(4-(6-((6-Acetyl-8-cyclopentyl-5-methyl-7-oxo-7,8-dihydropyrido[2,3-d]pyrimidin-2-yl)amino)pyridin-3-yl)piperazin-1-yl)acetamido)pentyl)amino)-N-(6-cyclopropyl-5-fluoropyridin-2-yl)-6-(methylamino)nicotinamide]",A (degradation activity >80%),A (degradation activity >80%)
"CNc1ccc(C(=O)Nc2nc(C3CC3)ccc2F)c(NC2CC3(CC(NC(=O)CN4CCN(c5ccc(Nc6ncc7c(C)c(C(C)=O)c(=O)n(C8CCCC8)c7n6)nc5)CC4)C3)C2)n1 (stereo not shown) [CPD-114, 2-((6-(2-(4-(6-((6-Acetyl-8-cyclopentyl-5-methyl-7-oxo-7,8-dihydropyrido[2,3-d]pyrimidin-2-yl)amino)pyridin-3-yl)piperazin-1-yl)acetamido)spiro[3.3]heptan-2-yl)amino)-N-(6-cyclopropyl-3-fluoropyridin-2-yl)-6-(methylamino)nicotinamide]",D (degradation activity <30%),D (degradation activity <30%)
"CNc1ccc(C(=O)Nc2ccc(N(C)C)nn2)c(NC2CC3(C2)CN(C(=O)C2(CN4CCN(c5ccc(Nc6ncc7c(C)c(C(C)=O)c(=O)n(C8CCCC8)c7n6)nc5)CC4)CC2)C3)n1 [CPD-115, 2-((2-(1-((4-(6-((6-Acetyl-8-cyclopentyl-5-methyl-7-oxo-7,8-dihydropyrido[2,3-d]pyrimidin-2-yl)amino)pyridin-3-yl)piperazin-1-yl)methyl)cyclopropane-1-carbonyl)-2-azaspiro[3.3]heptan-6-yl)amino)-N-(6-(dimethylamino)pyridazin-3-yl)-6-(methylamino)nicotinamide]",A (degradation activity >80%),A (degradation activity >80%)
"CNc1ccc(C(=O)Nc2ccc(C)c(OC)n2)c(NCCCCCNC(=O)CN2CCN(c3ccc(Nc4ncc5c(C)c(C(C)=O)c(=O)n(C6CCCC6)c5n4)nc3)CC2)n1 [CPD-116, 2-((5-(2-(4-(6-((6-Acetyl-8-cyclopentyl-5-methyl-7-oxo-7,8-dihydropyrido[2,3-d]pyrimidin-2-yl)amino)pyridin-3-yl)piperazin-1-yl)acetamido)pentyl)amino)-N-(6-methoxy-5-methylpyridin-2-yl)-6-(methylamino)nicotinamide]",B (50%< degradation activity <80%),A (degradation activity >80%)
"CNc1ccc(C(=O)Nc2ccc(N(C)C)nn2)c(NC2CC3(C2)CN(C(=O)C(C)CN2CCN(c4ccc(Nc5ncc6c(C)c(C(C)=O)c(=O)n(C7CCCC7)c6n5)nc4)CC2)C3)n1 (stereo not shown) [CPD-117, 2-((2-(3-(4-(6-((6-Acetyl-8-cyclopentyl-5-methyl-7-oxo-7,8-dihydropyrido[2,3-d]pyrimidin-2-yl)amino)pyridin-3-yl)piperazin-1-yl)-2-methylpropanoyl)-2-azaspiro[3.3]heptan-6-yl)amino)-N-(6-(dimethylamino)pyridazin-3-yl)-6-(methylamino)nicotinamide]",A (degradation activity >80%),A (degradation activity >80%)

# — patent US20260297081A1, “COMPOUNDS AND METHODS OF TREATING CANCERS” (Cullgen Inc., priority 2023, published 2026)
